# Measurements from the supplement of paper PMC10441789.
# Some of the results follow. Antibody binding of pooled human sera (four to six donors per pool; dilution not stated) to peptides of the Trypanosoma cruzi antigen TSSA on microarrays. Quantile-normalised fluorescence in arbitrary units, mean of duplicate arrays; higher = more binding. No active / inactive call. The uninfected pools are read here as the healthy donors of the same country. The strongest signals lie near the top of the scale (about 60,000).
# Tests used:
# Experiment in all cases: antibody binding signal (normalised fluorescence) (arbitrary fluorescence units); higher = stronger serum antibody binding to peptide
# [1] = tested on: pooled sera of chronic Chagas disease patients, Argentina
# Method: (§1)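 Microarray of 15-residue peptides over residues 30-55 of Trypanosoma cruzi TSSAII, each with 1 to 10 substitutions at naturally variable positions, probed with one serum pool per country.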
# [2] = tested on: pooled sera of chronic Chagas disease patients, Bolivia
# Method: as §1
# [3] = tested on: pooled sera of chronic Chagas disease patients, Brazil
# Method: as §1
# [4] = tested on: pooled sera of chronic Chagas disease patients, Colombia
# Method: as §1
# [5] = tested on: pooled sera of chronic Chagas disease patients, Mexico
# Method: as §1
# [6] = tested on: pooled sera of chronic Chagas disease patients, USA
# Method: as §1
# [7] = tested on: pooled sera of uninfected people, Argentina
# Method: as §1
# [8] = tested on: pooled sera of uninfected people, Bolivia
# Method: as §1
# [9] = tested on: pooled sera of uninfected people, Brazil
# Method: as §1
# [10] = tested on: pooled sera of uninfected people, Mexico
# Method: as §1
# [11] = tested on: pooled sera of uninfected people, USA
# Method: as §1
Sequence,antibody binding signal [1],antibody binding signal [2],antibody binding signal [3],antibody binding signal [4],antibody binding signal [5],antibody binding signal [6],antibody binding signal [7],antibody binding signal [8],antibody binding signal [9],antibody binding signal [10],antibody binding signal [11]
KKAAAGGTPSQPGAS,188,205,185,1850,196,1360,252,177,728,139,219
KPATGEAPSPPGASS,50700,48000,48500,333,283,39900,956,829,208,182,201
KKTATGGTPSPPGAS,372,267,211,1150,224,1230,264,156,136,73.6,335
ENKPATGGAPSPPGA,2100,17100,5850,408,782,3180,415,992,280,189,253
KDKKPATGETPSQPG,24500,4020,34500,142,129,18100,243,279,168,664,140
TSSTPPSGKEKKTAA,16200,311,269,531,17900,562,507,469,372,86.2,235
PSGTEKKAATGGTPS,11200,907,4830,5720,7830,6170,659,430,924,272,304
PSGTENKTATGETPS,37900,31200,42300,864,1260,12500,1100,477,222,323,408
KENKAAAGGAPSPSG,131,192,208,1210,149,364,161,73.1,86.7,89.3,110
KEKKTATGEAPSQSG,6940,5020,9360,260,526,14800,188,75,218,110,93.2
GTDKKPATGEAPSPS,52600,48400,50500,7860,791,40800,978,747,250,630,278
GKEKKTATGETPSPP,7360,1310,2320,5280,8330,8580,278,133,91.1,141,195
GTDKKTAAGGAPSPP,179,277,198,7300,566,917,145,191,118,260,145
SGTDKKTAAGGTPSP,1510,197,583,17100,720,2030,172,135,687,411,220
ENKAATGETPSPPGA,3180,5290,16000,239,182,13500,153,230,172,138,768
GTDKKPAAGGAPSQP,282,242,6440,9950,829,972,175,307,328,306,172
TPPSGTDKKTATGGA,13000,9050,25700,4630,21800,2150,711,176,187,450,279
TPPSGTDKKPATGGT,33400,4570,42100,5510,48800,4960,774,476,1000,3130,448
GTDKKPAAGGTPSPP,398,383,1160,9790,523,1120,151,391,1600,503,192
EKKTAAGETPSPPGA,346,297,336,511,380,4290,152,1240,141,281,1460
TPPSGKDKKAATGET,1620,403,2020,433,21700,821,315,366,115,118,126
PPSGTENKPATGGTP,47600,51500,50900,380,4740,22100,4350,2010,1050,647,1110
KDNKTATGEAPSPPG,12900,11900,16600,2300,432,20100,505,191,200,88.7,152
TENKPAAGEAPSPPG,41700,1750,33700,324,409,14800,133,340,211,91.8,131
KDKKTATGETPSPSG,222,196,220,199,326,4840,214,117,84,115,923
KDKKAAAGGTPSQPG,201,204,172,1690,290,999,216,74.3,606,136,87.2
SGTENKPATGGAPSQ,45600,22800,35600,439,987,8760,745,1930,273,322,248
